# Assay results from the supplement of paper PMC8728848.
# The list shows a part of the results.
# Experiments:
# Assay in all cases: glycan array binding signal (z-score within array); higher = stronger binding
# Settings in all cases: glycan notation: IUPAC condensed, linker removed
# [1] = target: Neu5Ac(a2-6)Gal(b1-4)GlcNAc(b1-3)Gal(b1-4)GlcNAc(b1-3)Gal(b1-4)GlcNAc(b1-2)Man(a1-3)[Neu5Ac(a2-6)Gal(b1-4)GlcNAc(b1-3)Gal(b1-4)GlcNAc(b1-3)Gal(b1-4)GlcNAc(b1-2)Man(a1-6)]GalNAc
# Method in brief: (§1)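 Glycan array binding is given as a within-array Z-score, which can be read as non-binding when negative. The arrays, 3228 of them, came from the Consortium for Functional Glycomics database and were retained only where the protein sequence was available. Z-scores were averaged across arrays of the same protein sequence at different concentrations or buffers and across linkers.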
# [2] = target: Neu5Ac(a2-6)Gal(b1-4)GlcNAc(b1-3)Gal(b1-4)GlcNAc(b1-3)GalNAc
# Method in brief: as §1
# [3] = target: Neu5Ac(a2-6)Gal(b1-4)GlcNAc(b1-3)Gal(b1-4)GlcNAc(b1-3)[Neu5Ac(a2-6)Gal(b1-4)GlcNAc(b1-3)Gal(b1-4)GlcNAc(b1-6)]GalNAc
# Method in brief: as §1
# [4] = target: Neu5Ac(a2-6)Gal(b1-4)GlcNAc(b1-3)Gal(b1-4)GlcNAc(b1-6)[Gal(b1-3)]GalNAc
# Method in brief: as §1
# [5] = target: Neu5Ac(a2-6)Gal(b1-4)GlcNAc(b1-3)Gal(b1-4)[Fuc(a1-3)]GlcNAc(b1-3)Gal(b1-4)[Fuc(a1-3)]GlcNAc
# Method in brief: as §1
# [6] = target: Neu5Ac(a2-6)Gal(b1-4)GlcNAc(b1-3)GalNAc
# Method in brief: as §1
# [7] = target: Neu5Ac(a2-6)Gal(b1-4)GlcNAc(b1-3)[Neu5Ac(a2-6)Gal(b1-4)GlcNAc(b1-6)]GalNAc
# Method in brief: as §1
# [8] = target: Neu5Ac(a2-6)Gal(b1-4)GlcNAc(b1-6)GalNAc
# Method in brief: as §1
# [9] = target: Neu5Ac(a2-6)Gal(b1-4)GlcNAc(b1-6)[Gal(b1-3)GlcNAc(b1-3)]Gal(b1-4)Glc
# Method in brief: as §1
# [10] = target: Neu5Ac(a2-6)Gal(b1-4)GlcNAc(b1-6)[Gal(b1-3)]GalNAc
# Method in brief: as §1
# [11] = target: Neu5Ac(a2-6)Gal(b1-4)GlcNAc6S
# Method in brief: as §1
# [12] = target: Neu5Ac(a2-6)GalNAc
# Method in brief: as §1
# [13] = target: Neu5Ac(a2-6)GalNAc(b1-4)GlcNAc
# Method in brief: as §1
# [14] = target: Neu5Ac(a2-6)GalNAc(b1-4)GlcNAc6S
# Method in brief: as §1
# [15] = target: Neu5Ac(a2-6)GlcNAc(b1-4)GlcNAc
# Method in brief: as §1
# [16] = target: Neu5Ac(a2-6)GlcNAc(b1-4)GlcNAc(b1-4)GlcNAc
# Method in brief: as §1
# [17] = target: Neu5Ac(a2-8)Neu5Ac
# Method in brief: as §1
# [18] = target: Neu5Ac(a2-8)Neu5Ac(a2-3)Gal(b1-3)GalNAc(b1-4)[Neu5Ac(a2-3)]Gal(b1-4)Glc
# Method in brief: as §1
# [19] = target: Neu5Ac(a2-8)Neu5Ac(a2-3)Gal(b1-3)GalNAc(b1-4)[Neu5Ac(a2-8)Neu5Ac(a2-3)]Gal(b1-4)Glc
# Method in brief: as §1
# [20] = target: Neu5Ac(a2-8)Neu5Ac(a2-3)Gal(b1-4)Glc
# Method in brief: as §1
# [21] = target: Neu5Ac(a2-8)Neu5Ac(a2-3)Gal(b1-4)GlcNAc
# Method in brief: as §1
# [22] = target: Neu5Ac(a2-8)Neu5Ac(a2-3)[Gal(b1-3)GalNAc(b1-4)]Gal(b1-4)Glc
# Method in brief: as §1
# [23] = target: Neu5Ac(a2-8)Neu5Ac(a2-3)[GalNAc(b1-4)]Gal(b1-4)Glc
# Method in brief: as §1
# [24] = target: Neu5Ac(a2-8)Neu5Ac(a2-8)Neu5Ac
# Method in brief: as §1
# [25] = target: Neu5Ac(a2-8)Neu5Ac(a2-8)Neu5Ac(a2-3)Gal(b1-4)Glc
# Method in brief: as §1
# [26] = target: Neu5Ac(a2-8)Neu5Ac(a2-8)Neu5Ac(a2-3)[Gal(b1-3)GalNAc(b1-4)]Gal(b1-4)Glc
# Method in brief: as §1
# [27] = target: Neu5Ac(a2-8)Neu5Ac(a2-8)Neu5Ac(a2-3)[GalNAc(b1-4)]Gal(b1-4)Glc
# Method in brief: as §1
# [28] = target: Neu5Ac(a2-8)Neu5Ac(a2-8)Neu5Ac(a2-8)Neu5Ac(a2-3)[GalNAc(b1-4)]Gal(b1-4)Glc
# Method in brief: as §1
# [29] = target: Neu5Ac(a2-8)Neu5Gc(a2-3)Gal(b1-4)GlcNAc
# Method in brief: as §1
# [30] = target: Neu5Ac(b2-6)Gal(b1-4)GlcNAc
# Method in brief: as §1
# [31] = target: Neu5Ac(b2-6)GalNAc
# Method in brief: as §1
# [32] = target: Neu5Ac9Ac(a2-3)Gal(b1-3)GlcNAc
# Method in brief: as §1
# [33] = target: Neu5Ac9Ac(a2-3)Gal(b1-4)GlcNAc
# Method in brief: as §1
# [34] = target: Neu5Ac9Ac(a2-6)Gal(b1-4)GlcNAc
# Method in brief: as §1
# [35] = target: Neu5Gc(a2-3)Gal(b1-3)GlcNAc
# Method in brief: as §1
# [36] = target: Neu5Gc(a2-3)Gal(b1-3)[Fuc(a1-4)]GlcNAc
# Method in brief: as §1
# [37] = target: Neu5Gc(a2-3)Gal(b1-4)Glc
# Method in brief: as §1
# [38] = target: Neu5Gc(a2-3)Gal(b1-4)GlcNAc
# Method in brief: as §1
# [39] = target: Neu5Gc(a2-3)Gal(b1-4)GlcNAc(b1-3)Gal(b1-4)GlcNAc(b1-2)Man(a1-3)[Neu5Gc(a2-3)Gal(b1-4)GlcNAc(b1-3)Gal(b1-4)GlcNAc(b1-2)Man(a1-6)]Man(b1-4)GlcNAc(b1-4)GlcNAc
# Method in brief: as §1
# [40] = target: Neu5Gc(a2-3)Gal(b1-4)[Fuc(a1-3)]GlcNAc
# Method in brief: as §1
# [41] = target: Neu5Gc(a2-6)Gal(b1-4)GlcNAc
# Method in brief: as §1
# [42] = target: Neu5Gc(a2-6)GalNAc
# Method in brief: as §1
# [43] = target: Neu5Gc(a2-8)Neu5Ac(a2-3)Gal(b1-4)GlcNAc
# Method in brief: as §1
# [44] = target: Neu5Gc(a2-8)Neu5Gc(a2-3)Gal(b1-4)GlcNAc
# Method in brief: as §1
# [45] = target: Neu5Gc(a2-8)Neu5Gc(a2-3)Gal(b1-4)GlcNAc(b1-3)Gal(b1-4)GlcNAc
# Method in brief: as §1
binder,measurement,setting,value
rCnSL-proB (Clitocybe nebularis) (protein) PTFSPIFALLAFLPFGTLASLLPQTQLVFRINPNLPGPNDVFVGYRGTNNVVGAIYERDGIKDTPMNNGADAELGPGSYITDDLFTAQIFASGSAGNNPGTTATVCKIYADGVQWRGAPKGYLPVLYFGNGQAAEQTRQTYLQGLDIPGTAIRFANLAKTPNQGPTAPRQMVVPSGGLQTLLKASCFPANHAALPQVLSYFNVRAALPPGWNIRTGPEFPNWTN,glycan array binding signal (z-score),[1],3.06
same,glycan array binding signal (z-score),[2],-0.613
same,glycan array binding signal (z-score),[3],2.62
same,glycan array binding signal (z-score),[4],0.051
same,glycan array binding signal (z-score),[5],0.101
same,glycan array binding signal (z-score),[6],-0.47
same,glycan array binding signal (z-score),[7],-0.681
same,glycan array binding signal (z-score),[8],0.251
same,glycan array binding signal (z-score),[9],-0.154
same,glycan array binding signal (z-score),[10],-0.365
same,glycan array binding signal (z-score),[11],-0.186
same,glycan array binding signal (z-score),[12],-0.41
same,glycan array binding signal (z-score),[13],-0.802
same,glycan array binding signal (z-score),[14],-0.462
same,glycan array binding signal (z-score),[15],-0.255
same,glycan array binding signal (z-score),[16],-0.665
same,glycan array binding signal (z-score),[17],-0.779
same,glycan array binding signal (z-score),[18],-0.495
same,glycan array binding signal (z-score),[19],-0.129
same,glycan array binding signal (z-score),[20],-0.59
same,glycan array binding signal (z-score),[21],-0.761
same,glycan array binding signal (z-score),[22],0.503
same,glycan array binding signal (z-score),[23],-0.432
same,glycan array binding signal (z-score),[24],-0.203
same,glycan array binding signal (z-score),[25],-0.271
same,glycan array binding signal (z-score),[26],0.882
same,glycan array binding signal (z-score),[27],0.31
same,glycan array binding signal (z-score),[28],-0.106
same,glycan array binding signal (z-score),[29],-0.929
same,glycan array binding signal (z-score),[30],0.221
same,glycan array binding signal (z-score),[31],-0.39
same,glycan array binding signal (z-score),[32],-0.873
same,glycan array binding signal (z-score),[33],2.62
same,glycan array binding signal (z-score),[34],-0.431
same,glycan array binding signal (z-score),[35],-0.332
same,glycan array binding signal (z-score),[36],-0.449
same,glycan array binding signal (z-score),[37],-1.34
same,glycan array binding signal (z-score),[38],-0.525
same,glycan array binding signal (z-score),[39],-0.066
same,glycan array binding signal (z-score),[40],-0.511
same,glycan array binding signal (z-score),[41],0.015
same,glycan array binding signal (z-score),[42],-0.491
same,glycan array binding signal (z-score),[43],-0.556
same,glycan array binding signal (z-score),[44],0.262
same,glycan array binding signal (z-score),[45],-0.869
